101 compounds from article PMC6919601, “Identification of Plasmodium dipeptidyl aminopeptidase allosteric inhibitors by high throughput screening” (PLoS ONE, 2019) can be followed below.

Each structure is given as a SMILES string. The whole screen tested about 110,000 compounds, of which about 230 (0.21%) showed an effect of 50% or more. The list shows a part of the results.
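Further: 30 min substrate incubation versus DMSO and 10 µM JCP410 controls.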

Sequence of DPAP1 (Q8IIJ9 whole entry, looked up): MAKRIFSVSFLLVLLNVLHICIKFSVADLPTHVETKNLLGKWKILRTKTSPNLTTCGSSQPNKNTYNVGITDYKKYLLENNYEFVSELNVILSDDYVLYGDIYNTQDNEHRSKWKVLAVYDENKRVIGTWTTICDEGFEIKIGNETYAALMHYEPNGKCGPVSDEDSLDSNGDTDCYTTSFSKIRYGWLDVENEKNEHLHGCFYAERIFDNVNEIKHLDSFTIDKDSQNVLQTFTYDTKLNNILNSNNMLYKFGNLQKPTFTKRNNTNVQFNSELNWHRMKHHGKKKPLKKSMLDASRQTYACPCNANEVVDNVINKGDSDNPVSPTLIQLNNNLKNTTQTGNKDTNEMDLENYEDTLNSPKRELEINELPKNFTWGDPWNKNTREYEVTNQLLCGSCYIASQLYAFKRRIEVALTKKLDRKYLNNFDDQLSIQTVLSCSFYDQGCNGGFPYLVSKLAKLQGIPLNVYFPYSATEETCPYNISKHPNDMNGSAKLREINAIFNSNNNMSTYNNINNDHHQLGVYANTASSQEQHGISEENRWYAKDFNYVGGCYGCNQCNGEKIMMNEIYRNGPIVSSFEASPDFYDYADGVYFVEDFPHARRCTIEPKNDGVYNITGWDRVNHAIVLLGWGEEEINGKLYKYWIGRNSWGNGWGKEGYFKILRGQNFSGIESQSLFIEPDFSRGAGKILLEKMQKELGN

This test has as its target DPAP1 (Plasmodium falciparum, UniProt Q8IIJ9). The experiment in a line: primary screen, percent inhibition; read by cleavage of a fluorogenic dipeptide substrate; higher = more effect of the substance. The arrangement: species or system P. falciparum D10 trophozoite lysates; single well.
Regarding `O=C(CCC(=O)N1CCSc2ncccc21)N1CCCCC1`, the “% Inhibition @ 10 uM” value was -3.34%.
As to `CC1CCC(N2CCCCC2CO)CC1` (centres unmarked), the “% Inhibition @ 10 uM” value is -7.5%.
In the case of `CCOc1ccc(Nc2nc(N)c3ccccc3n2)cc1`, the “% Inhibition @ 10 uM” value is listed as -0.519%.
For `COc1ccc(C(=O)Nc2ccc(S(=O)(=O)Nc3nc(C)cc(C)n3)cc2)cc1`, the “% Inhibition @ 10 uM” value was -2.21%.
For `Cc1cc(OCC(=O)Nc2cccc(Cl)c2)ccc1Br` the value was -3.23%; for `O=C(Nc1cccc(Br)c1)c1ccc(F)cc1`, 1.48%; for `CCc1ccccc1NC(=O)CN(c1cc(Cl)ccc1OC)S(C)(=O)=O`, 2.02%.
With `CN1CCCN(CC2=CC[C@H]3C[C@@H]2C3(C)C)CC1`, the “% Inhibition @ 10 uM” value is given as -2.56%.
With `CCc1ccc2oc(-c3ccccc3)c/c(=N\CC(=O)O)c2c1`, the “% Inhibition @ 10 uM” value is reported as 5.44%.
As for `CC(C)NC(=O)c1ccc(CSCc2ccccc2Cl)o1`, the “% Inhibition @ 10 uM” value is recorded as 2.05%.
Regarding `CCN1CCN(c2oc(/C=C/c3cccs3)nc2C#N)CC1`, the “% Inhibition @ 10 uM” value worked out at 3.27%.
For `Cc1ccc(/C(=C\CN2CCCC2)c2ccccn2)cc1`, the “% Inhibition @ 10 uM” value is reported as 3.48%.
On to `CC(C)C[C@H](NC(=O)c1ccc2nc(-c3cccnc3)oc2c1)C(=O)NCC#N`, for which the “% Inhibition @ 10 uM” value is 0.173%.
Consider `CCOC(=O)C1CCN(C(=O)c2ccc(C#CC3(O)CCCCC3)cc2)CC1`, for which the “% Inhibition @ 10 uM” value is 2.65%.
The result for `CCOC(=O)C1CCN(Cc2ccc(C)o2)CC1` reads 1.42%.
For `CC(NC(=O)c1cc(-c2ccc(Cl)cc2)[nH]n1)c1ccc2c(c1)OCCO2` (centres unmarked) the value was 1.39%.
Take `Cc1c(C(=O)N2CCCC2)oc2c1-c1nn(CC(=O)NCCCN3CCCC3=O)cc1CC2`: the “% Inhibition @ 10 uM” value was -3.16%.
Regarding `COc1cccc(C(=O)NCCSc2c[nH]c3ccccc23)c1OC`, the “% Inhibition @ 10 uM” value was -4.06%.
For the compound `CC(=O)c1cccc(NC(=O)/C(=C\c2cccnc2)NC(=O)c2ccc(C)cc2)c1`, the “% Inhibition @ 10 uM” value worked out at 4.65%.
On to `CC(NC(=O)c1cccs1)c1cc2c(cc1Br)OCCCO2` (centres unmarked), for which the “% Inhibition @ 10 uM” value came to 0.475%.
For the compound `COc1cccc(C2NC(=O)NC(C)=C2C(=O)OC(C)(C)C)c1` (centres unmarked), the “% Inhibition @ 10 uM” value was found to be 4.74%.
As for `O=C(O)CCC(=O)Nc1ccc(N2C(=O)C3C4CCC(C4)C3C2=O)cc1` (centres unmarked), the “% Inhibition @ 10 uM” value is reported as -7.28%.
On to `COC(=O)c1ccccc1Nc1nc(-c2ccccc2)cc(-c2ccc(C)cc2)n1`, for which the “% Inhibition @ 10 uM” value is -5.62%.
The result for `CC1CCCC(C)N1CCCNC(=O)Nc1cn(C)c(=O)c2ccccc12` (centres unmarked) reads 6.54%.
For the compound `CC(C)NC(=O)c1cnn2c1NC(c1ccc(Br)cc1)CC2C(F)(F)F` (centres unmarked), the “% Inhibition @ 10 uM” value is on record as -4.4%.
For `Cc1cc(O)c2c(O)n(-c3ccccc3)nc2n1`, the “% Inhibition @ 10 uM” value is 0.032%.
In the case of `Cc1ccc(NC(=O)CN(c2cc(C)ccc2C)S(C)(=O)=O)cc1`, the “% Inhibition @ 10 uM” value is reported as 2.42%.
The result for `c1ccc(N2CCN(CC3CCCCC3)CC2)cc1` reads -0.446%; that for `O=c1c2nnn(-c3ccc(F)cc3)c2ncn1C/C=C/c1ccccc1`, -0.431%.
As to `CC(=O)NCC1(c2ccccc2)CCOCC1`, the “% Inhibition @ 10 uM” value worked out at 0.11%.
For the compound `Cc1oc2ncn3nc(CCn4c(C)nc5ccccc54)nc3c2c1C`, the “% Inhibition @ 10 uM” value is listed as -3%.
As for `C=CCc1cc(/C=C2/NC(=O)NC2=O)cc(OC)c1OCc1ccccc1`, the “% Inhibition @ 10 uM” value was 3.15%.
Regarding `Cc1ccc2[nH]c3c(c2c1)CCCC3NC(C)c1ccccc1` (centres unmarked), the “% Inhibition @ 10 uM” value is -1.15%.
`COc1cc2nnc3[nH]nc(-c4ccccc4)c3c2cc1OC`: the “% Inhibition @ 10 uM” value stood at 3.76%.
The result for `CCC(CC)C(=O)Nc1nc(-c2ccccc2)cs1` reads 6.91%; that for `CCc1cccc(CC)c1NC(=O)c1cc(OC)cc(OC)c1`, -6.74%; that for `COc1ccccc1/C=C(/NC(=O)c1ccccc1Cl)C(=O)N1CCNCC1`, -6.35%.
For `COc1ccccc1CC(=O)Nc1cc(C)on1`, the “% Inhibition @ 10 uM” value is recorded as -5.28%.
For `CN(Cc1ccccc1)S(=O)(=O)c1ccc2c(c1)OCC(C(=O)N1CCCC1)O2` (centres unmarked) the value was -6.11%; for `Cc1cc(O)n(-c2nc(-c3ccccc3)cc(-c3ccc(Br)cc3)n2)n1`, 6.53%; for `Cc1sc2ncn(CC(=O)NCCCC(=O)N3CCC(C)CC3)c(=O)c2c1C`, 5.12%.
In the case of `Cc1ccc(NC(=O)c2c([N+](=O)[O-])cnn2C)cc1C`, the “% Inhibition @ 10 uM” value is listed as -4.43%.
The result for `CCC(C)NC(=O)Cn1c(=O)n(CCc2ccccc2)c(=O)c2c(C)c(C)sc21` (centres unmarked) reads -1.92%; that for `Cc1ccccc1C1=N/C(=C\C(Cl)=C\c2ccccc2)C(=O)O1`, -0.769%.
`COc1cc2c(cc1OC)CN(Cc1ccc(C(=O)O)cc1)CC2`: the “% Inhibition @ 10 uM” value is listed as -0.828%.
On to `CCN1C(=O)C(=CNc2cccc(Br)c2)C(=O)N(CC)C1=O`, for which the “% Inhibition @ 10 uM” value is listed as -2.87%.
As for `O=C(NC1CCCC1)c1cc(-c2ccccc2O)on1`, the “% Inhibition @ 10 uM” value is -0.591%.
Turning to `CC1CCCC(C)N1C(=O)c1ccc(F)c(F)c1` (centres unmarked), the “% Inhibition @ 10 uM” value is listed as 5.41%.
On to `CC(=O)NC(C)c1nc2ccccc2n1Cc1c(F)cccc1Cl` (centres unmarked), for which the “% Inhibition @ 10 uM” value was -2.01%.
`NC(=O)c1sc2nc3c(cc2c1N)CCCC3`: the “% Inhibition @ 10 uM” value was determined as 4.66%.
Turning to `O=C(/C=C/c1ccccc1)N1CCCc2ccccc21`, the “% Inhibition @ 10 uM” value is reported as -5.68%.
Regarding `Cc1cc(C)c(S(=O)(=O)N2CCN(c3ccccc3)CC2)c(C)c1`, the “% Inhibition @ 10 uM” value was -7.17%.
Take `Cc1cc(C)c(S(=O)(=O)Nc2ccc(C)c(C)c2)c(C)c1`: the “% Inhibition @ 10 uM” value was -4.63%.
The result for `Cc1ccc(CNC(=O)C2CCC(=O)N2CCc2ccccc2)cc1` (centres unmarked) reads 1.62%.
As to `Oc1cc(CSc2ccc(Cl)cc2)nc(N2CCN(Cc3ccc4c(c3)OCO4)CC2)n1`, the “% Inhibition @ 10 uM” value was determined as 1.51%.
`O=C(Nc1ccc2c(c1)oc1ccccc12)C1CCCCC1`: the “% Inhibition @ 10 uM” value turned out to be 2.55%.
For `COCCNC(=O)C12CCC3CC(CC(C3)C1)C2` the value was 3.44%; for `Cc1nc2ccccc2n1-c1nn2c(C(F)(F)C(F)(F)F)nnc2c2ccccc12`, -0.834%.
The result for `Cc1ccc(CCNC(=O)NC(C)(C)C)cc1` reads -8.92%; that for `COc1ccc(C2C(C#N)=C(N)OC3=C2C(=O)CCC3)cc1OCc1ccc(Cl)cc1` (centres unmarked), 5.67%.
As to `Cc1cc(C)c(-n2cccc2CN)c(C)c1`, the “% Inhibition @ 10 uM” value is reported as -2.77%.
Take `CC(C)c1ccc(NC(=O)C23CC4CC(CC(C4)C2)C3)cc1`: the “% Inhibition @ 10 uM” value was -0.192%.
On to `COC(=O)c1nc2n(n1)C(c1ccc(C)cc1)/C(=C(\O)OC1CCCCC1)C(C)=N2` (centres unmarked), for which the “% Inhibition @ 10 uM” value was found to be 4.77%.
Take `CCOc1ccc(C2C(C#N)=C(N)Oc3[nH]nc(-c4cccs4)c32)cc1OCC` (centres unmarked): the “% Inhibition @ 10 uM” value is listed as -6.59%.
For `COc1ccc(CN2CCN(Cc3ccccc3)CC2)c(OC)c1OC` the value was -5.23%.
The result for `CC1(C)CC2=Nc3ccccc3NC(c3cc4c(cc3Br)OCO4)C2=C(O)C1` (centres unmarked) reads -3.27%; that for `COC(=O)C1=C(C)N=C(C)/C(=C(/O)OC)C1c1ccc(OC)c(Br)c1` (centres unmarked), -0.769%; that for `Cc1ccc(S(=O)(=O)N2CCN(c3nc(NC(C)c4ccccc4)c4ccccc4n3)CC2)cc1` (centres unmarked), 0.778%.
Take `O=C(NCc1ccc(F)cc1Cl)c1cc(O)nc2ccc(S(=O)(=O)N3CCCC3)cc12`: the “% Inhibition @ 10 uM” value turned out to be 0.387%.
Consider `O=C(Nc1ccc2ccccc2c1)C1CC(=O)N(C2CCCCC2)C1` (centres unmarked), for which the “% Inhibition @ 10 uM” value is -3.9%.
For `C=CCOC(=O)C1=C(C)N(C)C(=O)NC1c1cc(OC)ccc1OC` (centres unmarked), the “% Inhibition @ 10 uM” value is listed as -5.92%.
`N#CC1=C(N)Oc2[nH]nc(-c3ccc(F)cc3)c2C1c1ccco1` (centres unmarked): the “% Inhibition @ 10 uM” value is given as -2.45%.
Regarding `Cc1ccc(CNC(=O)c2cc3c(Cl)ccc4c3n2CCO4)o1`, the “% Inhibition @ 10 uM” value amounted to 2.48%.
`CCOc1ccc2nc(N3CCC(C(=O)Nc4cc(-c5ccccc5Cl)no4)CC3)sc2c1`: the “% Inhibition @ 10 uM” value was -7.1%.
For `CCc1cc(=O)oc2cc(OCC(=O)N(CC)CC)c(Cl)cc12` the value was 3.47%.
For `CCCOc1cccc(C(=O)Nc2ccc(CN3CCOCC3)cc2)c1`, the “% Inhibition @ 10 uM” value is listed as -0.0272%.
For the compound `COC(=O)C1=C(C)N(C)C(=O)NC1c1ccc(C)cc1` (centres unmarked), the “% Inhibition @ 10 uM” value was 4.7%.
As to `O=C(O)c1cn(Cc2ccccc2)c2ccccc2c1=O`, the “% Inhibition @ 10 uM” value was determined as 3.91%.
As for `CC1=C(C(=O)OCCc2ccccc2)C(c2ccccc2OC(C)C)CC(=O)N1` (centres unmarked), the “% Inhibition @ 10 uM” value is 4.86%.
As to `CCCCNC(=O)c1ccc(CS(=O)(=O)c2ccc(C)cc2)o1`, the “% Inhibition @ 10 uM” value is given as -5.19%.
Turning to `CC(C)C[C@H](NC(=O)OCc1ccccc1)C(=O)N[C@H](C#N)Cc1ccccc1`, the “% Inhibition @ 10 uM” value was determined as 0.174%.
With `Cc1ccc(C(=O)Nc2c3c(nn2-c2ccc(F)cc2)CS(=O)(=O)C3)cc1C`, the “% Inhibition @ 10 uM” value was found to be 8.19%.
The result for `NS(=O)(=O)c1ccc(CCNC(=O)C2=Cc3sc4c(c3CS2)CCCC4)cc1` reads 12%.
Take `Cc1cccc(-c2nnc3sc(NC(=O)COc4ccccc4)nn23)c1`: the “% Inhibition @ 10 uM” value was 1.68%.
Take `O=C(Nc1cccnc1Cl)c1cnn2c1NC(c1ccccc1)CC2C(F)(F)F` (centres unmarked): the “% Inhibition @ 10 uM” value is -4.75%.
The result for `CC(=O)NCCNC(=O)c1ccc2c(c1)nc(S)n1c3ccccc3nc21` reads 1.58%; that for `CSc1nc(-c2cccc(Cl)c2)nc2c1Cc1c(CO)cnc(C)c1O2`, 6.1%.
Turning to `COc1cccc(CN2CCN(Cc3cccc(F)c3)CC2)c1`, the “% Inhibition @ 10 uM” value was 2.54%.
On to `CCc1c(C)nc2ccc(C)cc2c1Cl`, for which the “% Inhibition @ 10 uM” value is -5.34%.
Regarding `N#C/C(=C\c1ccc(Br)o1)c1nc(-c2ccc(Br)cc2)cs1`, the “% Inhibition @ 10 uM” value was -4.02%.
Consider `COc1ccc(/C=C2\Cc3ccccc3C2=O)cc1Cn1nc(C)cc1C`, for which the “% Inhibition @ 10 uM” value is given as -4.65%.
On to `Cc1ccsc1-c1ncnn1-c1sc2c(c1C#N)CCCC2`, for which the “% Inhibition @ 10 uM” value is on record as -1.82%.
In the case of `COc1ccc(CN2CCN(Cc3ccccc3Br)CC2)cc1OC`, the “% Inhibition @ 10 uM” value worked out at 0.0974%.
Turning to `CCC(NC(=O)c1cc(S(=O)(=O)N(C)C)c(Cl)cc1Cl)C12CC3CC(CC(C3)C1)C2` (centres unmarked), the “% Inhibition @ 10 uM” value is -0.703%.
The result for `CCOc1cc(CN2CCC3(C=Cc4ccccc43)CC2)ccc1OC` reads -3.42%; that for `O=c1c2oc3ccccc3c2ncn1Cc1ccccc1`, -4.18%.
In the case of `Cn1c(=O)[nH]c(O)c(/C=C/c2ccc3ccccc3n2)c1=O`, the “% Inhibition @ 10 uM” value came out at 3.6%.
For `C=C(C)c1cccc(C(C)(C)NC(=O)N2CCN(C(=O)OCC)CC2)c1` the value was -5.62%; for `O=C(NCc1ccc(F)cc1)c1cc(-c2ccc(O)cc2)on1`, -2.65%.
Take `Cc1ccc(N2CCN(CC(=O)Nc3ccc(Br)cc3)CC2)cc1Cl`: the “% Inhibition @ 10 uM” value is reported as -4.68%.
Turning to `COc1ccc(CNCc2cc(C)c(OC)cc2C)cc1`, the “% Inhibition @ 10 uM” value is recorded as -3.32%.
